This experiment has as its target FITC-RGS14 GoLoco motif peptide (UniProt O08773). The experiment in a line: fluorescence polarisation.

“And” between values parts separate entries of the source, which are not always exact repeats. Equal values may be shown once.

Chain of UniProt O08773 (O08773 497-519): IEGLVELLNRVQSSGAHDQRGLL

On to “Gαi1(G42R), full-length, hexahistidine-tagged (a stretch of the chain, no sequence given) (natural protein)”, for which the equilibrium dissociation constant (Kd) was 45 nM and 168 nM.

These data come from publication PMC3285607.
